Measurements as given in PubChem BioAssay (Tox21).
Several values for one entry are separate records, joined by “and”; a condition that tells them apart may be missing. Identical values can stand only once. The inconclusive results got no clear call from the source; some entries with a clear call stand among them for comparison. Potencies beside an inconclusive call are fits to weak or partial responses and may not hold up. Activity calls are given as the source filed them. Calls follow the shape of the dose curve; as a rule, active = well fitted cell-killing curve with a large enough effect in the repeat runs (not every such curve was filed as active); inconclusive = weak or mixed curves, or effect the other way; inactive = no such curve, though single readings can be large or run the other way.
Potency is read from the fitted curve at half-maximal effect; tags tell the direction and shape of the fitted curve.

Test: qHTS assay to identify small molecule antagonists of the estrogen related receptor signaling pathway with the pleiotropic PPARgamma coactivator (PGC) from Tox21 10K library - cell viability counter screen (AID 1224840); also: nearly all actives have a fitted effect of over 40% in size
Conditions: PGC/ERR reporter cells viability, CellTiter-Fluor, 17.5 h; series mostly up to 92.4 µM
Text: National Center for Advancing Translational Sciences [NCATS]
NIH Chemical Genomics Center [NCGC]
U.S. Environmental Protection Agency [EPA]
National Institutes of Environmental Health Sciences [NIEHS]
National Toxicology Program [NTP]
U.S. Food and Drug Administration [FDA]
Estrogen related receptors (ERRs), the first orphan nuclear receptors discovered, play an important role in the control of cellular energy metabolism. ERRs are required for high-energy production in response to the environmental challenges. The pleiotropic PPARgamma coactivator (PGC) is a major partner of ERR and a key regulator in energy homeostasis. Together they have been implicated in the etiology of metabolic disorders such as Type 2 diabetes and metabolic syndrome. ERR-alpha was also identified as an adverse marker for breast cancer progression; ERR-alpha-positive tumors have a poor prognosis. To screen and to identify environmental compounds that perturb the ERR and PGC/ERR signaling pathways could provide valuable information for potential therapeutic or preventive measures in the treatment of metabolic disease. To differentiate true PGC/ERR antagonists or agonist from cytotoxic substances, the assay is multiplexed with cell viability assay.
Tox21 Assay Protocol Summary:
The PGC/ERR cells were dispensed at 2,000 cells/5 ul/well in 1536-well white plates using a Multidrop dispenser. After the assay plates were incubated at a 37 C/5% CO2 incubator for 6 hours, 23 nL of compounds dissolved in DMSO, positive and negative controls or DMSO only was transferred to the assay plate by a pin tool. The plates were incubated at 37 C for 17.5 hours. 1 ul/well of CellTiter-Fluor reagent was added into the assay plates using a Flying Reagent Dispenser. After 30-minute incubation at 37 C/5% CO2, the fluorescence intensity in the plates was measured using a ViewLux plate reader.
In the case of `O=C(O)COCCN1CCN(C(c2ccccc2)c2ccc(Cl)cc2)CC1` (stereo not given), the Potency is reported as “inactive”. In the case of `Fc1ccccc1[C@@H](F)COC1CCC(Nc2ncnc3[nH]ncc23)CC1` (stereo not given in full), the Potency is reported as inconclusive: 48.6 µM [cytotoxic, partial curve]. For `Sc1nc2ccccc2s1`, the Potency was inconclusive: 61.1 µM [cytotoxic, partial curve, poor fit]. In the case of `CO[C@@H]1[C@@H](OC)[C@H](C)[C@@](O)(CC(=O)O)O[C@H]1[C@H](C)[C@H]1O[C@@]2(CC[C@@](C)([C@H]3CC[C@@](C)([C@@H]4O[C@@H]([C@H]5O[C@](C)(O)[C@H](C)C[C@@H]5C)C[C@@H]4OC4C[C@H](OC)[C@@H](OC)[C@H](C)O4)O3)O2)C[C@H](O)[C@H]1C` (stereo not given in full), the Potency is reported as active: 0.75 µM. With `Nc1ccc2c(O)cc(S(=O)(=O)O)cc2c1` the Potency was inconclusive: 19.4 µM [cytotoxic, full curve] and inconclusive: 17.2 µM [cytotoxic, full curve]. With `COc1nc(C)nc(N)n1` the Potency was “inactive”. For `O=C(OCC1CO1)C1CCCCC1C(=O)OCC1CO1` (stereo not given), the Potency was inconclusive: 48.6 µM [cytotoxic, partial curve]. For `CCCCCCCCCCCC(=O)[O][Sn]([CH2]CCC)([CH2]CCC)[O]C(=O)CCCCCCCCCCC`, the Potency was “inactive”. For `CN(C)CCCN1c2ccccc2CCc2ccccc21`, the Potency was inconclusive: 68.6 µM [cytotoxic, single point] and inconclusive: 29.8 µM [cytotoxic, partial curve, poor fit]. For `COc1cc(C(=O)OCCCN2CCCN(CCCOC(=O)c3cc(OC)c(OC)c(OC)c3)CC2)cc(OC)c1OC`, the Potency was inconclusive: 23.7 µM [cytotoxic]. For `CC1=C(/C=C/C(C)=C\C=C\C(C)=C\C(=O)O)C(C)(C)CCC1`, the Potency was inconclusive: 54.5 µM [cytotoxic, partial curve]. With `CC(C)CC(=O)OCc1ccccc1` the Potency was “inactive”. For `COc1cc2c(cc1OC)C(C(C(=O)N(CCc1ccc(OC)c(OC)c1OC)CCc1ccc(OC)c(OC)c1OC)c1ccccc1)=NCC2` (stereo not given), the Potency was inconclusive: 8.41 µM [cytotoxic, full curve]. With `C=CC(C)(C)CC(=O)OC` the Potency was inconclusive: 1.73 µM [cytotoxic, full curve]. For `O=C(CCc1ccc(O)cc1)c1c(O)cc(O)cc1O`, the Potency was inconclusive: 62.5 µM [cytotoxic, partial curve]. For `Cc1c(-c2ccc(O)cc2)n(Cc2ccc(OCCN3CCCCCC3)cc2)c2ccc(O)cc12`, the Potency was inconclusive: 29.8 µM [cytotoxic, partial curve, poor fit]. With `CCOc1ccc2nc3cc(N)ccc3c(N)c2c1` the Potency was inconclusive: 29.8 µM [rising, partial curve]. In the case of `CCN(CC)CCCC(C)Nc1c2ccc(Cl)cc2nc2ccc(OC)cc12` (stereo not given), the Potency is reported as inconclusive: 5.96 µM [cytotoxic, full curve]. For `CO[C@@]12[C@H](COC(N)=O)C3=C(C(=O)C(C)=C(N)C3=O)N1C[C@@H]1N[C@@H]12`, the Potency was inconclusive: 29.8 µM [cytotoxic, partial curve, poor fit]. In the case of `C=CCN(CC=C)CC=C`, the Potency is reported as “inactive”. In the case of `CCC(C)(CCC(C)C)C(=O)[O][Sn]([CH3])([CH3])[O]C(=O)C(C)(CC)CCC(C)C` (stereo not given), the Potency is reported as inconclusive: 27.3 µM [cytotoxic, single point]. For `CC(C)c1ccc2cc(C(C)C)ccc2c1`, the Potency was “inactive”. With `O=C(O)c1ccccc1` the Potency was inconclusive: 72 µM [cytotoxic, single point]. With `Oc1cccc2c(O)cccc12` the Potency was inconclusive: 48.6 µM [cytotoxic, partial curve]. In the case of `O=[N+]([O-])C1(Br)COCOC1`, the Potency is reported as inconclusive: 61.1 µM [cytotoxic, single point]. With `CCN(CC)c1ccc2c(c1)Oc1cc(N(CC)CC)ccc1C21OC(=O)c2ccccc21` the Potency was active: 8.41 µM. For `Oc1cc(Cl)cc(Cl)c1Cl`, the Potency was inconclusive: 78.8 µM [cytotoxic, single point]. For `CN1CCN(Cc2cc(-c3ccc4[nH]c(=O)oc4c3)co2)[C@@H](c2ccc(F)cc2)C1`, the Potency was inconclusive: 41.6 µM [cytotoxic, partial curve]. With `O=C1C=CC(=O)N1c1cccc(N2C(=O)C=CC2=O)c1` the Potency was active: 34.4 µM. For `Cc1c(C(=O)O)c(O)cc2c1C(=O)c1c(O)c([C@@H]3O[C@H](CO)[C@@H](O)[C@H](O)[C@H]3O)c(O)c(O)c1C2=O`, the Potency was inconclusive: 37.6 µM [cytotoxic, partial curve] and inconclusive: 27.3 µM [cytotoxic, partial curve]. With `CC(C)=CCC1=C(O)c2ccccc2C(=O)C1=O` the Potency was inconclusive: 43 µM [cytotoxic, partial curve, poor fit]. In the case of `NC(=O)N(O)[C@@H]1C=C[C@H](Oc2cccc(Oc3ccc(F)cc3)c2)C1`, the Potency is reported as inconclusive: 54.5 µM [cytotoxic, partial curve, poor fit]. In the case of `NC(=O)c1ccccc1C(N)=O`, the Potency is reported as inconclusive: 68.9 µM [rising, single point]. For `CC[C@H](NC(=O)c1cc(F)ccc1NS(=O)(=O)c1cccc2cccnc12)c1ccccc1`, the Potency was inconclusive: 64.9 µM [cytotoxic, partial curve]. In the case of `C[C@]12CC[C@@H]3c4ccc(O)cc4CC[C@H]3[C@@H]1CC[C@@H]2O`, the Potency is reported as inconclusive: 38.6 µM [cytotoxic, partial curve]. With `CN1CCCCC1CCN1c2ccccc2Sc2ccc(S(C)=O)cc21` (stereo not given) the Potency was inconclusive: 33.5 µM [cytotoxic]. In the case of `CC(C)(C)CC(C)(C)c1ccc(OCCO)cc1`, the Potency is reported as active: 54.2 µM. In the case of `CC(COc1ccc(C(C)(C)C)cc1)OS(=O)OCCCl` (stereo not given), the Potency is reported as active: 0.614 µM. In the case of `Cc1cc([N+](=O)[O-])ccc1N`, the Potency is reported as inconclusive: 60.3 µM [cytotoxic, partial curve]. In the case of `CCCN1CCCC[C@H]1C(=O)Nc1c(C)cccc1C`, the Potency is reported as “inactive”.
